# Hit rate of the full screen: of about 410,000 compounds, about 5,000 (1.2%) were called active. Inconclusive results, whose numbers are uncertain, are shown with a selection of clear calls. Calls come from the whole dose curve; as a rule, active = well fitted inhibition curve with a large enough effect; inconclusive = small, poorly fitted or top-dose-only effect; inactive = no such curve, though single readings can be large or run the other way. Potencies beside an inconclusive call are fits to weak or partial responses and may not hold up.
# Experiment: qHTS for Inhibitors of TGF-b; note: nearly all actives have a fitted effect of over 65% in size
# Conditions: HepG2 CAGA-GFP TGF-b/SMAD3 reporter, GFP fluorescence, 18 h, TGF-beta stimulated, 500 pg/mL final; series mostly up to 46.1 µM; activity, negative = inhibition: at the top concentration
# In short: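 HEPG2 CAGA-GFP reporter cells (1000/well, DMEM with 1% FBS) received compounds, then recombinant TGF-beta at 500 pg/mL final for 18 hours at 37 degrees C. Per-cell GFP summed per well was normalised to unstimulated and stimulated DMSO controls before curve fitting.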
# % is set by controls: 0 for no effect and ±100 for the full control effect; potency is the fitted concentration of half-maximal effect; tags give direction and shape of the fitted curve.
SMILES,Potency,"activity, negative = inhibition"
CCOC(=O)c1sc(=S)sc1SCc1cccc(C(F)(F)F)c1,"inconclusive: 11.2 µM [inhibitor, partial curve]",
O=C(NCc1ccco1)c1ccccc1NS(=O)(=O)c1ccc(Br)s1,"inconclusive: 12.6 µM [inhibitor, partial curve, poor fit]",
CCCCOC(=O)c1ccc(NC(=S)NC(=O)c2c(Cl)cnn2CC)cc1,,inactive: -0.246%
COc1ccc(C(=O)N2CCCC2)cc1S(=O)(=O)N1CCOCC1,,inactive: -8.86%
CCCOc1ccc(CNC(=O)c2cc3ccccn3n2)cc1,"inconclusive: 10 µM [inhibitor, partial curve]",
CCOc1cc(/C=C/c2nc3ccccc3s2)ccc1OCC(=O)N1CCOCC1,"inconclusive: 0.708 µM [inhibitor, full curve, poor fit]",
COc1ccc(-c2cc3nc(C)n(N)c(=O)c3s2)cc1,,inactive: 30.8%
O=C(CCNC(=O)c1ccccc1Cl)Nc1ccc2c(c1)OCO2,"inconclusive: 35.5 µM [inhibitor, single point]",
O=C(c1ccc(Cl)cc1)C(Cn1cncn1)C(Sc1ccccc1)c1ccccc1 (configuration not stated),"inconclusive: 35.5 µM [inhibitor, single point]",
N#CNC(=Nc1ccc(Cl)cc1)Oc1ccccc1,,inactive: -10.3%
COc1ccc(C)cc1NC(=O)Nc1ccccc1,"inconclusive: 0.794 µM [inhibitor, full curve, poor fit]",
CC(C)(C)n1cnc2cc(NCc3ccc(Br)cc3)ccc21,"inconclusive: 35.5 µM [inhibitor, single point]",
COc1ccccc1N1CCN(C(=O)CSc2nc(-c3ccco3)cc(C(F)(F)F)n2)CC1,"inconclusive: 22.4 µM [inhibitor, single point]",
O=C(N/N=C/c1ccc([N+](=O)[O-])o1)c1cc(-c2ccncc2)nc2ccccc12,,inactive: 14.4%
COC(=O)C1CCN(C(=O)c2ccc(SC)cc2OC)CC1,,inactive: -14%
CCc1nc2ccccc2c(C(=O)OCC(=O)NC2CC2)c1C,,inactive: -0.386%
C[C@@]12CCC=C[C@H]1[C@H](c1ccc3ccccc3c1)N(Cc1ccccc1)C2=O,"inconclusive: 10 µM [inhibitor, partial curve, poor fit]",
O=c1[nH]cnc2c1ccn2C1OC(CO)C(O)C1O (configuration not stated),"inconclusive: 35.5 µM [inhibitor, single point]",
CC12CCC=CC1C(c1cccc(Br)c1)N(Cc1ccccc1)C2=O (configuration not stated),active: 12.6 µM,
Cc1cc(NC(=O)CSc2nccn2-c2cccc(Cl)c2)no1,"inconclusive: 3.55 µM [inhibitor, partial curve, poor fit]",
Oc1ccc(-c2nc(-c3ccc(O)c(O)c3)cs2)cc1,"inconclusive: 11.2 µM [inhibitor, partial curve, poor fit]",
Cc1ccc(CNC(=O)Nc2ccccc2)c(C)c1,,inactive: 3.22%
Cc1ccc(N2C(=O)N(Cc3cccc(Cl)c3)c3ccccc3S2(=O)=O)cc1,,inactive: 0%

SMILES,Potency,"activity, negative = inhibition"
COc1cc(/C=C(/C#N)c2nc3ccccc3[nH]2)ccc1Oc1ncccc1[N+](=O)[O-],"inconclusive: 11.2 µM [inhibitor, partial curve]",
COc1ccc(OC)c(NC(=O)COCc2cc(-c3ccc(F)cc3)on2)c1,,inactive: 36%
O=C(CCN1CCCCC1)N1CCc2c([nH]c3ccccc23)C1c1cccnc1 (configuration not stated),"inconclusive: 0.1 µM [inhibitor, full curve, poor fit]",
O=C(CSCC(=O)N1CCOCC1)Nc1nc(-c2ccccc2)cs1,,inactive: 1.69%
CS(=O)(=O)c1ccc(C(=O)OC2CCOC2=O)cc1[N+](=O)[O-] (configuration not stated),"inconclusive: 8.91 µM [inhibitor, partial curve, poor fit]",
COc1ccc(C)cc1NC(=O)CCN1CCN(C/C=C/c2ccccc2)CC1,"inconclusive: 17.8 µM [inhibitor, single point]",
COc1ccccc1-n1c(=O)n(C)c2c(C(N)=O)nc(-c3cc(OC)c(OC)c(OC)c3)nc21,,inactive: 37.3%
O=C(NCCC1CCCCN1S(=O)(=O)c1cccs1)C(=O)Nc1cccc(F)c1 (configuration not stated),"inconclusive: 22.4 µM [inhibitor, single point]",
Cc1c(C)n(Cc2ccc(F)cc2)c2ccc(C(=O)N3CCN(c4ccccn4)CC3)cc12,"inconclusive: 25.1 µM [inhibitor, single point]",
Fc1ccc(-c2nc3c4ccccc4ccn3c2Cc2ccsc2)cc1,"inconclusive: 7.94 µM [inhibitor, partial curve]",
COc1cccc(NC(=O)C2CCCC2)c1,,inactive: -5.63%
O=C(c1ccccc1[N+](=O)[O-])n1cnc2ccccc21,,inactive: 0%
Cc1cc(C(=O)N2CCCC(N3CCN(c4cccc(C(F)(F)F)c4)CC3)C2)no1 (configuration not stated),,inactive: -10.9%
CC(C)(C)NC(=O)C(c1ccc(-c2ccccc2)cc1)N(C[C@H]1CC[C@@H]([C@@H]2CC[C@H](CO)O2)O1)C(=O)c1cccc(Cl)c1 (some centres not stated),"inconclusive: 20 µM [inhibitor, single point]",
Nc1ccc(-c2c3ccc(=O)cc-3oc3cc(O)ccc23)cc1C(=O)O,"inconclusive: 7.94 µM [inhibitor, partial curve, poor fit]",
CCCCOCCCN1CC(=O)N2C(C)c3[nH]c4ccccc4c3C[C@H]2C1=O (some centres not stated),"inconclusive: 5.01 µM [inhibitor, partial curve, poor fit]",
CC(C)C(=O)Nc1ccc(N2CCN(C(=O)c3cccs3)CC2)cc1,,inactive: 9.6%
COc1ccc(CCn2c(C)cc(C(=O)CCl)c2C)cc1OC,"inconclusive: 35.5 µM [inhibitor, single point]",
CN(CC(=O)Nc1ccccc1Cl)C(=O)COC(=O)C1=COCCO1,"inconclusive: 0.562 µM [inhibitor, partial curve, poor fit]",
O=C(NCc1ccc(Cl)cc1Cl)c1cccc(N2CCCS2(=O)=O)c1,"inconclusive: 10 µM [inhibitor, partial curve]",
Cc1cccc(N2CCN(C(=S)c3ccc(-c4ccccc4[N+](=O)[O-])o3)CC2)c1,"inconclusive: 15.8 µM [inhibitor, single point]",
COc1cc(OC)cc(-c2c(-c3cccs3)c3cc(-c4cnc(OC)nc4)ccc3n2C)c1,"inconclusive: 0.562 µM [inhibitor, full curve]",
CCn1cc2nc(SCc3cccc(C(F)(F)F)c3)n(Cc3ccc(C)cc3)c(=O)c2n1,"inconclusive: 11.2 µM [inhibitor, partial curve, poor fit]",

SMILES,Potency,"activity, negative = inhibition"
CC(=O)c1ccc(NC(=O)COC(=O)Cn2cnc3ccccc32)cc1,"inconclusive: 11.2 µM [inhibitor, single point]",
O=C1c2ccccc2C(=O)N1CCCON1C(=O)c2ccccc2C1=O,"inconclusive: 2.82 µM [inhibitor, single point]",
CCOC(=O)C(C)On1c(-c2ccc(Cl)cc2)nc2ccc([N+](=O)[O-])cc21 (configuration not stated),"inconclusive: 11.2 µM [inhibitor, partial curve, poor fit]",
Cc1oc2c(c1C(=O)c1ccccc1)C(=O)C(=O)c1ccccc1-2,"inconclusive: 3.55 µM [inhibitor, full curve, poor fit]",
COc1ccc(-n2nc3c(c2NC(=O)CCl)CSC3)cc1,"inconclusive: 12.6 µM [inhibitor, single point]",
COc1ccc2c(Sc3ccc(Cl)cc3)c(C(=O)N3CCCCC3)[nH]c2c1,"inconclusive: 35.5 µM [inhibitor, single point]",
COc1ccc(N2CCN(C3CCCN(S(=O)(=O)c4ccc(C)cc4C)C3)CC2)cc1 (configuration not stated),"inconclusive: 11.2 µM [inhibitor, partial curve, poor fit]",
COCc1cc(=O)n2[nH]cc(-c3ccsc3)c2n1,"inconclusive: 17.8 µM [inhibitor, single point]",
COC(=O)c1[nH]c2cccc(Cl)c2c1NC(=O)CN(C)C1CCCCC1,"inconclusive: 35.5 µM [inhibitor, single point]",
CC1SC(=S)N(c2ccc(N(C)C)cc2)C1=O (configuration not stated),active: 15.8 µM,
COc1ccccc1CNc1nc(NCCOc2ccccc2Cl)c2sccc2n1,"inconclusive: 14.1 µM [inhibitor, single point]",
CCOC(=O)c1ccc(NC(=O)CN2C(=O)CNC2=O)cc1,"inconclusive: 35.5 µM [inhibitor, single point]",
CC(C)c1ccc(NC(=O)CSC2=Nc3ccccc3C3=NC(CC(=O)NC4CCCCC4)C(=O)N23)cc1 (configuration not stated),"inconclusive: 10 µM [inhibitor, partial curve, poor fit]",
COc1ccc(-c2cc(C(=O)N3CCN(c4ccccc4F)CC3)c3ccccc3n2)c(OC)c1,"inconclusive: 35.5 µM [inhibitor, single point]",
CC(C)CN1CC(C)C(=O)N(c2ccccc2)C1=O (configuration not stated),,inactive: 10.4%
O=C(NCc1ccc(F)cc1)c1ccc(CS(=O)Cc2ccccc2Cl)o1 (configuration not stated),"inconclusive: 7.94 µM [inhibitor, partial curve, poor fit]",
CN(C(=O)CSc1nnn(C)n1)c1ccccc1,,inactive: -5.81%
Cc1ccc2c(c1)[C@H]1[C@H](CO2)[C@H](c2ccccc2)[C@]2(C)C(=O)N(CC3CCCO3)CC(=O)N12 (some centres not stated),,inactive: -4.65%
OC1(c2ccc(F)cc2)CCN(Cc2cccnc2)CC1,"inconclusive: 35.5 µM [inhibitor, single point]",
O=C(CCCSc1ccc(Cl)cc1)Nc1ccccc1O,"inconclusive: 35.5 µM [inhibitor, single point]",
CN(C)C(=O)c1ccc(/C=C/c2ccnc3ccccc23)cc1,"inconclusive: 35.5 µM [inhibitor, single point]",
